Source: PubChem BioAssay AID504332 (National Center for Advancing Translational Sciences (NCATS), 2011)
The campaign covered roughly 350,000 compounds. About 31,000 (8.9%) were called active. This list was built around the results that the source calls inconclusive (neither active nor inactive); the mix of calls is not that of the screen. Calls come from the whole dose curve; as a rule, active = well fitted inhibition curve with a large enough effect; inconclusive = small, poorly fitted or top-dose-only effect; inactive = no such curve, though single readings can be large or run the other way. Where the call is inconclusive, the potency comes from a doubtful curve fit.

Target: Histone-lysine N-methyltransferase EHMT2 (Homo sapiens) (UniProt Q96KQ7)
Assay: qHTS Assay for Inhibitors of Histone Lysine Methyltransferase G9a; note: nearly all actives have a fitted effect of over 75% in size
Conditions: G9a H3K9 monomethylation, AlphaScreen, 2 h; activity, negative = inhibition: at 59 µM (top of the series) unless noted
How it was run: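 AlphaScreen read-out: biotin-H3K9 peptide (500 nM) methylation by 20 nM enzyme with 20 uM SAM, 2 h at room temperature after 15 min compound preincubation; anti-monomethyl H3K9 antibody plus donor/acceptor beads, 10 min dark.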
% is set by controls: 0 for no effect and ±100 for the full control effect; potency is the fitted concentration of half-maximal effect; tags give direction and shape of the fitted curve.

UniProt Q96KQ7, sequence (Q96KQ7 whole entry, looked up): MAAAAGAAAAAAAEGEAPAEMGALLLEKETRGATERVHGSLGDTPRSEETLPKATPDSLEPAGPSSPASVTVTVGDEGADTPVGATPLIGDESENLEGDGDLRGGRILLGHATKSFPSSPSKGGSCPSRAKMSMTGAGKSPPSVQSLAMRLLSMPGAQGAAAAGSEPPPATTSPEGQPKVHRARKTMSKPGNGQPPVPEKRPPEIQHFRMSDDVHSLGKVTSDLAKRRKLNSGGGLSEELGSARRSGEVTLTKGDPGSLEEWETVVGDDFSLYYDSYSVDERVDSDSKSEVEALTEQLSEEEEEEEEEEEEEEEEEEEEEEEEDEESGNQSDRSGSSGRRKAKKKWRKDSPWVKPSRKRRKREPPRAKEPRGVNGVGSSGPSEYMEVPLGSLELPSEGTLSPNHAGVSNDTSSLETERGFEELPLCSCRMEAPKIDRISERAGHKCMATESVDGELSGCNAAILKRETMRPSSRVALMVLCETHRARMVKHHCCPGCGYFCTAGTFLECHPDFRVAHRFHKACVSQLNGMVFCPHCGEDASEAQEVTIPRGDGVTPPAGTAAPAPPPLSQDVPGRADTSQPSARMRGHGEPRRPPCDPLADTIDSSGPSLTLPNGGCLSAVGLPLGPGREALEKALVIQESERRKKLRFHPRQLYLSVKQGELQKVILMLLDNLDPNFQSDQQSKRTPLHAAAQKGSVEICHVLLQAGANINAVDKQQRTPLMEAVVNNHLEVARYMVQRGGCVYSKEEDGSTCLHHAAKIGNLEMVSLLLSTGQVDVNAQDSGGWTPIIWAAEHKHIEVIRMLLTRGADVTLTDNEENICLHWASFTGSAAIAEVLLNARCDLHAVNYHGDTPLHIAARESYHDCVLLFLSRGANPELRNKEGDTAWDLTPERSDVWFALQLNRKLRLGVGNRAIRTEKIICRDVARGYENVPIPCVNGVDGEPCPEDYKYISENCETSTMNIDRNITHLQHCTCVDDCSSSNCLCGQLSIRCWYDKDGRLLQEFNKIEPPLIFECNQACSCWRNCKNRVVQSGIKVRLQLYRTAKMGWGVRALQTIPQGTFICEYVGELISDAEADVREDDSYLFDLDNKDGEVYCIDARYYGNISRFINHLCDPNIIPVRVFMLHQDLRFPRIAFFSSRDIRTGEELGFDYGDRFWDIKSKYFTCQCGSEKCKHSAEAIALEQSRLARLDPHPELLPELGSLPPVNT

Row | SMILES | activity, negative = inhibition | Potency
1 | Cc1oc(-c2ccccc2Cl)nc1CS(=O)CC(=O)NCc1cccs1 (configuration not stated) | inactive: -17.4% [at 102 µM] | 
2 | O=[N+]([O-])c1cccc(Cl)c1NCCNS(=O)(=O)c1ccc(Cl)cc1 |  | inconclusive: 31.6 µM [inhibitor, single point]
3 | Cc1nn(Cc2ccc(Cl)cc2)c(C)c1NC(=O)CSc1n[nH]c(C)c1[N+](=O)[O-] |  | inconclusive: 89.1 µM [inhibitor, partial curve, poor fit]
4 | CC(C)(C)c1ccc(S(=O)(=O)N2CCc3nc4ccccc4c(C(=O)O)c3C2)cc1 |  | inconclusive: 89.1 µM [inhibitor, single point]
5 | N#C/C(=N\Nc1cccc2ccccc12)c1nnc2n1CCCCC2 |  | active: 1.78 µM
6 | Cc1cc([N+](=O)[O-])nn1CC(=O)Nc1cccc2nonc12 |  | active: 56.2 µM
7 | CCOc1ccc2nc(N(CCN(C)C)C(=O)c3ccc4c(c3)CCCC4)sc2c1 |  | active: 39.8 µM
8 | O=C(NCCN1CCCCC1)c1cc2ccccc2[nH]1 |  | inconclusive: 0.316 µM [inhibitor, full curve, poor fit]
9 | COc1ccccc1CO/N=C/NC(=O)c1c(OC)ccnc1Oc1ccc(F)cc1 | inconclusive: -93.6% [inhibitor] | 
10 | COc1ccc(C2=Nc3cccc4cccc(c34)N2)cc1 |  | inconclusive: 50.1 µM [inhibitor, partial curve, poor fit]
11 | COc1ccc(CN2CCN(Cc3ccccc3F)CC2)cc1OC |  | active: 8.91 µM
12 | C=CCn1c2ccccc2c2nnc(SCC(=O)NC(C(=O)OC)C(C)C)nc21 (configuration not stated) | inconclusive: -53.7% [inhibitor] | 
13 | COc1ccc(-n2c(C)cc(C(=O)Cn3nc(C(=O)O)c4ccccc4c3=O)c2C)cc1 |  | inconclusive: 3.16 µM [inhibitor, partial curve, poor fit]
14 | CCN(CC)S(=O)(=O)c1cc(C)ccc1NC(=S)Nc1cccnc1 |  | inconclusive: 44.7 µM [inhibitor, partial curve]
15 | NS(=O)(=O)c1ccc(N/N=C/c2ccc[nH]2)c([N+](=O)[O-])c1 |  | inconclusive: 22.4 µM [inhibitor, single point]
16 | Cc1ccc(NC(=O)COC(=O)CCc2ccccc2)c(Cl)c1 | inactive: 107% [at 102 µM] | 
17 | COc1cc(OC)c2c(-c3cccc(-c4ccc(OC)c(F)c4)c3)cc(=O)oc2c1 | inactive: -1.05% | 
18 | O=C(COC(=O)c1ccc(O)cc1O)NNC(=O)c1cccs1 |  | inconclusive: 7.08 µM [inhibitor, single point]
19 | COc1ccc(N2CCN(c3oc(-c4ccc(COc5cccc(C)c5)o4)nc3C#N)CC2)cc1 |  | inconclusive: 0.282 µM [inhibitor, full curve, poor fit]
20 | S=C(Cc1ccc(Cl)cc1)N1CCOCC1 |  | active: 14.1 µM
21 | COCCNC(=O)CSc1ccccc1C(=O)NC1CCSc2ccccc21 (configuration not stated) |  | active: 35.5 µM
22 | CCN1C(=O)/C(=C/C=C2\C=CN(CC)c3ccccc32)SC1=S |  | active: 8.91 µM
23 | O=C(NCCC1CCCCN1S(=O)(=O)c1ccccc1)C(=O)NCc1ccco1 (configuration not stated) | inconclusive: -75.8% [inhibitor] [at 2.33 µM] | 

Row | SMILES | activity, negative = inhibition | Potency
24 | Cc1cn(S(=O)(=O)c2ccc(Br)cc2)cn1 |  | inconclusive: 6.31 µM [inhibitor, full curve, poor fit]
25 | CCN(CC)c1sc(S(=O)(=O)c2ccccc2)nc1S(=O)(=O)c1ccc(C)cc1 | inactive: -8.3% | 
26 | CCN(CCCNC(=O)c1cc2c(Cl)nc3ccccc3c2s1)Cc1ccccc1 | inactive: -37.3% | 
27 | Cc1ccc(C)c2sc(N3CCN(C(=O)C(C)(C)C)CC3)nc12 | inactive: -7.43% | 
28 | COc1ccc(C(=O)NCCS(=O)(=O)NCc2ccco2)cc1 |  | inconclusive: 89.1 µM [inhibitor, single point]
29 | CC(=O)N1N=C(c2ccco2)CC1c1ccc(Br)cc1 (configuration not stated) |  | inconclusive: 35.5 µM [inhibitor, single point]
30 | C/C=C\C=C/C(=O)Nc1cccc(C2=NOC3(C2)C[C@H](C(N)=O)N(C(=O)Cc2ccc([N+](=O)[O-])cc2)C3)c1 (some centres not stated) |  | inconclusive: 3.16 µM [inhibitor, single point]
31 | Cc1cc(SCC(=O)c2ccc3c(c2)OCO3)nc2ccccc12 |  | inconclusive: 89.1 µM [inhibitor, partial curve, poor fit]
32 | CCC1(c2ccccc2)NC(=O)N(CC(=O)N(CC(=O)Nc2ccccc2C(F)(F)F)Cc2ccco2)C1=O (configuration not stated) |  | inconclusive: 50.1 µM [inhibitor, partial curve, poor fit]
33 | CCOC(=O)c1cnc(SC2CC(=O)N(c3ccc(C)cc3)C2=O)nc1N (configuration not stated) |  | inconclusive: 35.5 µM [inhibitor, single point]
34 | Cc1cc2c(ncn2C)c(NS(=O)(=O)c2ccc(Cl)cc2)c1C |  | inconclusive: 79.4 µM [inhibitor, partial curve, poor fit]
35 | O=C(Nc1cccc(-c2cn3ccccc3n2)c1)c1cc2ccccc2oc1=O | inconclusive: -89.9% [inhibitor] | 
36 | COc1cc(/C=N/Nc2nnc3c(n2)[nH]c2ccccc23)ccc1O |  | inconclusive: 89.1 µM [inhibitor, single point]
37 | COc1cc2c(cc1OC)C1=C(C#N)CCC(=O)N1CC2 | inactive: 14% | 
38 | COc1ccc(-n2nnnc2SCC(=O)c2cc3ccccc3o2)cc1 |  | inconclusive: 39.8 µM [inhibitor, partial curve, poor fit]
39 | CC(C)(C)c1ccc(-c2nc(SCC(=O)Nc3ccc(Cl)cc3)[nH]c(=O)c2C#N)cc1 | inactive: -16.1% | 
40 | CCC(C)(O)c1[nH]c2ccc(C(F)(F)F)cc2c1C (configuration not stated) |  | inconclusive: 79.4 µM [inhibitor, single point]
41 | COc1nc(-c2ccccc2)ccc1-c1noc(-c2ccco2)n1 |  | inconclusive: 39.8 µM [inhibitor, partial curve]
42 | COc1cc2[nH]c(=O)n(CCCCCC(=O)NC3CCCC3)c(=O)c2cc1OC |  | inconclusive: 7.94 µM [inhibitor, partial curve, poor fit]
43 | COc1ccc(C(=O)NC(CC(=O)O)c2cc([N+](=O)[O-])ccc2Cl)c(SC)c1 (configuration not stated) |  | inconclusive: 35.5 µM [inhibitor, partial curve, poor fit]
44 | COc1cc2c(cc1OC)C(CC#N)=NC(C)(C)C2 |  | inconclusive: 89.1 µM [inhibitor, single point]
45 | CCCCn1c(SCC(=O)NCc2ccco2)nc2ccccc2c1=O | inactive: -67.9% [at 102 µM] | 
46 | Cc1cc(N2CCN(C3CCCCC3)CC2)n2nc(C)nc2n1 |  | inconclusive: 89.1 µM [inhibitor, single point]

Row | SMILES | activity, negative = inhibition | Potency
47 | CC1CCCCN1S(=O)(=O)c1ccc2c(c1)oc(=O)n2CC(=O)O (configuration not stated) |  | inconclusive: 56.2 µM [inhibitor, partial curve, poor fit]
48 | CCN(CC)CCNC(=O)Nc1ccc2c(c1)N(Cc1ccccc1)C(=O)c1ccccc1S2 | inactive: -11.8% | 
49 | CC1C/C(=C/c2cccn2C)C(=O)/C(=C/c2cccn2C)C1 (configuration not stated) |  | inconclusive: 35.5 µM [inhibitor, single point]
50 | O=C(c1ccc([N+](=O)[O-])cc1)N1CCSC1c1ccccc1Cl (configuration not stated) |  | inconclusive: 31.6 µM [inhibitor, single point]
51 | CCN(Cc1ccccc1)c1ncnc2c1nnn2C | inactive: -31.8% | 
52 | Cc1ccc(-c2nc(CS(=O)CC(=O)N3CCN(c4ncccn4)CC3)c(C)o2)cc1 (configuration not stated) |  | inconclusive: 89.1 µM [inhibitor, single point]
53 | CCOC(=O)c1sc(NC(=O)CCN2C(=O)C3CCCCC3C2=O)cc1C (configuration not stated) | inactive: 28.7% [at 12.7 µM] | 
54 | Cc1ccccc1CN1C(=O)c2ccccc2Sc2ccc(C(=O)NC3CCCC3)cc21 | inactive: -27.6% | 
55 | CCCCN(CCCC)C(=O)C1CCN(S(=O)(=O)c2cccc3nsnc23)CC1 |  | inconclusive: 35.5 µM [inhibitor, partial curve, poor fit]
56 | CC1CCN(c2nc(-c3ccco3)c3c(c2C#N)CC(C)(C)OC3)CC1 |  | inconclusive: 28.2 µM [inhibitor, single point]
57 | CC(C)(C)c1cc(NC(=O)COC(=O)c2nccnc2N)n(-c2ccccc2)n1 |  | inconclusive: 79.4 µM [inhibitor, single point]
58 | C/C(=N/N1CCN(c2ccccn2)CC1)c1ccc([N+](=O)[O-])cc1 |  | inconclusive: 89.1 µM [inhibitor, partial curve, poor fit]
59 | O=C1C=CC(=O)N1Cc1ccccc1 |  | active: 1.78 µM
60 | CCOc1ccc(-c2c(=O)n(OCc3ccccn3)c3ccccc3[n+]2[O-])cc1 | inactive: 16.8% [at 102 µM] | 
61 | O=C(O)c1ccccc1C(=O)c1ccc(Oc2ccccc2)cc1 |  | inconclusive: 89.1 µM [inhibitor, single point]
62 | COc1ccc(S(=O)(=O)N(CC(=O)NCc2ccco2)c2ccccc2OC)cc1 |  | inconclusive: 89.1 µM [inhibitor, single point]
63 | O=C(O)c1cccc(Nc2ncnc3scc(-c4ccccc4)c23)c1 |  | inconclusive: 3.55 µM [inhibitor, full curve, poor fit]
64 | Cc1cc(C(=O)CSc2nnc(-c3ccccc3)n2C)c(C)n1C | inconclusive: -54.3% [inhibitor] | 
65 | CC(C)(C)NC(=O)C(c1ccncc1)N(Cc1ccc(F)cc1)C(=O)c1ccc(-c2ccccc2)[nH]1 (configuration not stated) |  | active: 28.2 µM
66 | COc1ccc(-n2nc([N+](=O)[O-])c(=NCCc3ccccc3)n2O)cc1 |  | inconclusive: 12.6 µM [inhibitor, single point]
67 | O=C(/C=C/c1ccco1)N/C(=C\c1ccccc1)C(=O)NCCc1nc2ccccc2[nH]1 |  | inconclusive: 20 µM [inhibitor, partial curve, poor fit]
